Assay results as given in PubChem BioAssay (NCATS).
“And” between values parts separate entries of the source, which are not always exact repeats. Equal values may be shown once. The shares of active, inactive and inconclusive entries below differ from those in the screen. A potency beside an inconclusive call is a rough fit, not a confirmed value. The source made the active and inactive calls. The call rests on the fitted dose curve; in most records, active means well fitted cell-killing curve with a large enough effect; inconclusive means small, poorly fitted or top-dose-only effect; inactive means flat fitted curve, though single readings scatter.

test: qHTS of pediatric cancer cell lines to identify multiple opportunities for drug repurposing: Primary screen for TC32 cells (AID 1347089); conditions: TC32 Ewing sarcoma viability, CellTiter-Glo luminescence, 48 h; series mostly up to 45.8 µM; activity change, negative = cytotoxic: at the top concentration; further: nearly all actives have a fitted effect of over 60% in size
Text: Drug repurposing or repositioning has been offered as a strategy for drug development in oncology programs. This approach has special potential for childhood cancers and other rare or orphan diseases, where the expected return on new drug development has been a disincentive to pharmaceuticals.
In this project we exploit the poly-pharmacology of drugs to discover new indications via phenotypic screening of a panel of 19 well-characterized cell lines derived from solid tumors seen in children and adolescents. The goal is to identify approved drugs with previously unrecognized anticancer properties that has the potential to reveal new mechanisms and biological processes involved in carcinogenesis or drug resistance. We employed a titration-based paradigm (quantitative high-throughput screening or qHTS), where all compounds were tested at multiple concentrations for their effect on cell viability. Concentration-response curves (CRCs) were derived directly from the primary screen, and both potency and efficacy values were used to identify compounds with robust bioactivity profiles. We screened the NIH Chemical Genomics Center (NCGC) Pharmaceutical Collection (NPC) and Mechanism Interrogation Plate (MIPE) small molecule collections of approved and investigational compounds against these cell lines; and measured metabolically active cells after 48 hours of compound treatment as a proxy for cell viability.
Assay Submitter: Nathalia J. Martinez, National Center for Advancing Translational Sciences, National Institutes of Health, Rockville, MD, USA; email: natalia.martinez@nih.gov
[1] Shen, M et al. Quantitative high-throughput phenotypic screening of pediatric cancer cell lines identifies multiple opportunities for drug repurposing. Oncotarget 2017 Dec 19;9(4):4758-4772. PMID 29435139.
The cells were obtained from University of North Carolina (UNC), Pediatric Preclinical Testing Program (PPT), and Coriell Institute (CI).
qHTS cell viability assay:
Cells were assayed in growth media at a density of 500-1,000 cells/well. Five microliters of cells were dispensed into 1,536-well, white, solid-bottom, TC-treated plates (Greiner Bio One) using a multidrop dispenser and incubated at 37 degrees C, 5% CO2, under a humidified atmosphere for 5 hours. Twenty-three nanoliters of compounds and controls (neutral control DMSO or positive control bortezomib at final concentration of 2.3 uM) were subsequently transferred by Kalypsys pintool. For primary screens, the MIPE collection was tested at 11-point dilutions (final concentrations range from 0.78 nM to 46 µM) and the NPC collection at 8-point dilutions (final concentrations range from 0.59 nM to 46 µM). Compounds tested in follow-up screens were assayed at 11-point dilutions. Cells were incubated for 48 hours, followed by addition of 3 uL of CellTiter-Glo (Promega). After a 15min incubation at room temperature, samples were analyzed for luminescence intensity using a ViewLux High-throughput CCD imager equipped with clear filters.
On the % scale 0 is the no-effect control and ±100 the full control effect; potency means the concentration at half of the fitted maximal effect; tags describe the fitted curve by direction and shape.

SMILES | Potency | activity change, negative = cytotoxic
COC1=C2C[C@@H](C)C[C@H](OC)[C@@H](O)[C@@H](C)C=C(C)[C@H](OC(N)=O)[C@@H](OC)C=CC=C(C)C(=O)NC(=CC1=O)C2=O | inconclusive: 26.2 µM [cytotoxic, single point] | 
c1ccc([C@H]2CN3CCSC3=N2)cc1 | inactive | 
CC1CNc2c(cccc2S(=O)(=O)N[C@@H](CCCN=C(N)N)C(=O)N2CC[C@@H](C)C[C@@H]2C(=O)O)C1 (stereo not given in full) |  | inactive: 4.6%
CNC(=O)c1c(-c2ccc(F)cc2)oc2cc(N(CCO)S(C)(=O)=O)c(C3CC3)cc12 | inconclusive: 20.8 µM [cytotoxic, single point] | 
O=C1c2cccc(O)c2C(=O)c2c(O)cc(CO)cc21 |  | inactive: -8.24%
NC(=O)N1CCC(CC(=O)N2CCC([C@H]3c4ncc(Br)cc4CCc4cc(Cl)cc(Br)c43)CC2)CC1 | inconclusive: 5.87 µM [cytotoxic, partial curve, poor fit] | 
COc1cc(OC2CCN(C)CC2)ccc1Nc1ncc2c(n1)n(C1CCCC1)c(=O)n2C | inconclusive: 26.2 µM [cytotoxic, single point] | 
C[C@@H](N)c1ccc(C(=O)Nc2ccnc3[nH]ccc23)cc1 |  | inactive: 3.88%
CCC(=O)O[C@]1(C(=O)CCl)[C@@H](C)C[C@H]2[C@@H]3CCC4=CC(=O)C=C[C@]4(C)[C@@]3(F)[C@@H](O)C[C@@]21C | inactive | 
OC[C@@H](O)[C@@H](O)[C@H](O)[C@@H](O)CO |  | inactive: 9.8%
O=C(NC[C@H](O)CO)c1ccncc1Nc1ccc(I)cc1F |  | inactive: 10.1%
Nc1ncnc2c1c(-c1cccc(OCc3ccccc3)c1)cn2C1CC(CN2CCC2)C1 (stereo not given) | active: 9.3 µM | 
NCC(=O)Nc1ccc(-n2nc(C(F)(F)F)cc2-c2ccc3c(ccc4ccccc43)c2)cc1 | inconclusive: 6.58 µM [cytotoxic, full curve] | 
N#Cc1c(NC(=O)c2cccc3ccccc23)sc2c1CCCC2 | active: 1.04 µM | 
CN1CCCN(C(=O)c2cccc(-c3ccc(C=C4C(=O)Nc5ccc(Cl)cc54)o3)c2)CC1 | inconclusive: 16.5 µM [cytotoxic, partial curve] | 
COc1cc2nccc(Oc3ccc(NC(=O)Nc4cc(C)on4)c(Cl)c3)c2cc1OC | inconclusive: 33 µM [cytotoxic, single point] | 
CC(=O)O[C@H]1C(=O)[C@@]2(C)C([C@H](OC(=O)c3ccccc3)[C@]3(O)C[C@H](OC(=O)[C@H](O)[C@@H](NC(=O)c4ccccc4)c4ccccc4)C(C)=C1C3(C)C)[C@]1(OC(C)=O)CO[C@@H]1C[C@@H]2O (stereo not given in full) | active: 0.0017 µM | 
Cn1cc(-c2ccc3nnc(Sc4ccc5ncccc5c4)n3n2)cn1 |  | inactive: 5.93%
c1cncc(CN2CCC(n3ncc4c(N5CCOCC5)nc(-c5ccc6[nH]ccc6c5)nc43)CC2)c1 | inconclusive: 7.39 µM [cytotoxic, full curve] | 
O=C(O)c1ccc(-n2nc(-c3ccccc3O)nc2-c2ccccc2O)cc1 | inconclusive: 29.7 µM [cytotoxic, single point] and inconclusive: 37 µM [cytotoxic, partial curve, poor fit] | 

SMILES | Potency | activity change, negative = cytotoxic
CCCCn1c(=O)n(Cc2ccccc2F)c(=O)c2[nH]c(Cc3ccc(NC(C)=O)cc3)nc21 |  | inactive: -13.4%
COc1cc(-c2nn(C3CCC(N4CCN(C(C)=O)CC4)CC3)c3ncnc(N)c23)ccc1NC(=O)c1cc2ccccc2n1C (stereo not given) | inconclusive: 23.4 µM [cytotoxic, single point] | 
Cc1[nH]c(C=C2C(=O)Nc3ccc(S(=O)(=O)N(C)c4cccc(Cl)c4)cc32)c(C)c1C(=O)N1CCN(C)CC1 | inconclusive: 33 µM [cytotoxic, single point] | 
O=C(Nc1ncc(SCCN2CCCC2)s1)[C@]1(c2ccc(S(=O)(=O)C3CC3)cc2)C[C@@H]1C1CCCCC1 |  | inactive: -17.1%
CC(=O)c1c(C)c2cnc(Nc3ccc(N4CCNCC4)cn3)nc2n(C2CCCC2)c1=O | inconclusive: 1.31 µM [cytotoxic, full curve] | 
CON=C(C(=O)N[C@@H]1C(=O)N2C(C(=O)O)=C(CSC(=O)c3ccco3)CS[C@H]12)c1csc(N)n1 |  | inactive: 6.91%
CC1(O)CC(c2nc(-c3ccc4ccc(-c5ccccc5)nc4c3)c3c(N)nccn23)C1 (stereo not given) | inconclusive: 1.17 µM [cytotoxic, full curve] | 
CCN(CC)CCNC(=O)c1ccc2nc(-c3ccccc3)c(-c3ccc(CN4CCC(n5c(=O)[nH]c6ccccc65)CC4)cc3)nc2c1 | active: 18.6 µM | 
Cc1ccc(-c2ncn(-c3ccc(Nc4nccc(-c5cccc(N6CCOCC6)c5)n4)cc3)n2)cn1 | active: 0.33 µM | 
CN[C@H]1[C@@H](O[C@@H]2[C@H](O[C@@H]3[C@@H](O)[C@@H](O)[C@@H](N=C(N)N)[C@@H](O)[C@@H]3N=C(N)N)O[C@H](C)[C@@]2(O)C=O)O[C@@H](CO)[C@@H](O)[C@H]1O |  | inactive: 6.69% [at 9.17 µM]
CCOC(=O)c1ccc(C#Cc2ccc3c(c2)C(C)(C)CCS3)nc1 | inactive | 
NC(=O)c1cccnc1 | inactive | 
CC(C=CC(=O)NO)=C[C@@H](C)C(=O)c1ccc(N(C)C)cc1 | active: 2.34 µM | 
Clc1ccc(C2(c3ccc(-c4cn[nH]c4)cc3)CCNCC2)cc1 | inconclusive: 10.4 µM [cytotoxic, partial curve] | 
COc1cc2c(cc1-c1c(C)noc1C)ncc1[nH]c(=O)n([C@H](C)c3ccccn3)c12 | inconclusive: 1.31 µM [cytotoxic, full curve] | 
O=S(=O)(NCCNCC=Cc1ccc(Br)cc1)c1cccc2cnccc12 | inconclusive: 23.4 µM [cytotoxic, single point] | 
C1=CCOCc2cc(ccc2OCCN2CCCC2)Nc2nccc(n2)-c2cccc(c2)OCC1 | active: 14.7 µM | 
COCCOc1ccc2c(c1)ncn2-c1ccc2cccc(N3CCC(N)CC3)c2n1 | inconclusive: 11.7 µM [rising, single point] | 
CCn1c(-c2nonc2N)nc2c(C#CC(C)(C)O)ncc(OC[C@H]3CCCNC3)c21 | inconclusive: 1.86 µM [cytotoxic, full curve, poor fit] | 
CCN(CC)Cc1ccc2cc(COC(=O)Nc3ccc(C(=O)NO)cc3)ccc2c1 | active: 5.87 µM | 
